The target of test [1] is T1, FLAG-GCN5(S275A) (mouse) (UniProt Q9JHD2).
T1 sequence: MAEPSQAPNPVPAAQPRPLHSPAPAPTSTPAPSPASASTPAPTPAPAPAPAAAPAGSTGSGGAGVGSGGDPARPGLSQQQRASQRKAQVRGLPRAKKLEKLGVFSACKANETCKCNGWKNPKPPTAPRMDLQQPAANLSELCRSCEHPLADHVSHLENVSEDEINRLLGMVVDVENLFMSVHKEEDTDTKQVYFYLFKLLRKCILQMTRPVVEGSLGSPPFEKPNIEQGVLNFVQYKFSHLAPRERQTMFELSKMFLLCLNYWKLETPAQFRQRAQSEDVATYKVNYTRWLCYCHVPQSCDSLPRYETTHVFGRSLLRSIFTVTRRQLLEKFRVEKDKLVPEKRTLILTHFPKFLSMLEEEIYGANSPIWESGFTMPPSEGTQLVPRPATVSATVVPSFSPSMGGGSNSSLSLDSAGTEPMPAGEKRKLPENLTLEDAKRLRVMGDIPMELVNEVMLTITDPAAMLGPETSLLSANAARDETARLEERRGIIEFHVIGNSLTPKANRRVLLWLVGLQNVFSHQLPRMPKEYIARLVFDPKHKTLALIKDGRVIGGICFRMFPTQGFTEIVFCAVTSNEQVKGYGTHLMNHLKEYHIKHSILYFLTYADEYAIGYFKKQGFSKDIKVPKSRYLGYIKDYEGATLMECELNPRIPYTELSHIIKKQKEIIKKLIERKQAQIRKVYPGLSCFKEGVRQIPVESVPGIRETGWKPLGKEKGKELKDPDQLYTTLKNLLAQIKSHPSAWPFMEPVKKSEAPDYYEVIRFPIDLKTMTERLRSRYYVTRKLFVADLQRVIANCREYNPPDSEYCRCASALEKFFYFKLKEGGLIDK
Kind of test: co-IP; as a4, AML12 cells exposed to pCPT-cAMP before lysis (30 min in Supplementary Fig. 4f,g; time not given for Figure 7g).

For test [2], the target named is FLAG-GCN5 (wild type) (mouse) (UniProt Q9JHD2). The test is described as above.
Test [3] addresses T1, FLAG-GCN5(S275A) (mouse). Kind of test: co-IP; AML12 cell lysates (20 mM Tris-HCl pH 7.5, 150 mM NaCl, 0.5% Nonidet P-40, 2 mM EDTA, 10% glycerol), IP with protein G-Sepharose or Dynabeads Protein G, immunoblot; some cells with CITED2 shRNA or H89.
The next test addresses T2, FLAG-GCN5(S275D) (mouse) (UniProt Q9JHD2).
T2 sequence: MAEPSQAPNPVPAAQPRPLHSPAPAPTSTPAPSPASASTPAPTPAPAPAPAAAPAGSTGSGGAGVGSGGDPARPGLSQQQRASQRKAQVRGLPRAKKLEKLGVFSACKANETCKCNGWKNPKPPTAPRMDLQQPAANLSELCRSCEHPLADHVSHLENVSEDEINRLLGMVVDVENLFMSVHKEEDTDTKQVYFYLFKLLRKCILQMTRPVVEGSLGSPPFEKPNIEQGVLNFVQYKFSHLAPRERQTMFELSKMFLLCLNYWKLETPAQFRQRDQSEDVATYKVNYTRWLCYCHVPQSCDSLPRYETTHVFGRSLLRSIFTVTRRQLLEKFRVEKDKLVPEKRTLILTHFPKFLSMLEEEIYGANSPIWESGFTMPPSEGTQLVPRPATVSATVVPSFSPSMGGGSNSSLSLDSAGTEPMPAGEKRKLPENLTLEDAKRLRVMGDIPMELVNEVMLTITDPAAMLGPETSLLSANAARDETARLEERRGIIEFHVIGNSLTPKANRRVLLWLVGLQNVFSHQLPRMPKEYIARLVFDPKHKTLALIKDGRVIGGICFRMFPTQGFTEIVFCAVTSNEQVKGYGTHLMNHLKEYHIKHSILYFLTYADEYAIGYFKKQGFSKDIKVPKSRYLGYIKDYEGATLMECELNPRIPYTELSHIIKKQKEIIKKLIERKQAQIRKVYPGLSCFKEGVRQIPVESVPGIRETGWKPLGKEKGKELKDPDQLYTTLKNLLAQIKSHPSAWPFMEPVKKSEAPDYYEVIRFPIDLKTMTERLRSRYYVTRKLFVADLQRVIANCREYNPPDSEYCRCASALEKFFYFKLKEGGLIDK
The test is described as above.

Test [4] addresses FLAG-GCN5 (wild type) (mouse) (UniProt Q9JHD2). The description is as above.
Test [5] deals with GCN5 in AML12 cells (construct not given) (mouse) (UniProt Q9JHD2). The experiment in a line: condition: only cells exposed to pCPT-cAMP for 30 min; co-IP; as a4, AML12 cells exposed to pCPT-cAMP before lysis (30 min in Supplementary Fig. 4f,g; time not given for Figure 7g).
For test [6] the target is unchanged. Kind of test: co-IP; AML12 cell lysates (20 mM Tris-HCl pH 7.5, 150 mM NaCl, 0.5% Nonidet P-40, 2 mM EDTA, 10% glycerol), IP with protein G-Sepharose or Dynabeads Protein G, immunoblot; some cells with CITED2 shRNA or H89. For orientation: A western blot detects proteins with antibodies after separation by electrophoresis.
The target of test [7] is FLAG-GCN5 (mouse liver) (mouse) (UniProt Q9JHD2). Kind of test: co-IP; liver of lean mice expressing FLAG-GCN5 and HA-CITED2, time course of fasting after refeeding; CITED2 co-immunoprecipitated with GCN5.
The target in test [8] is GCN5 immunoprecipitated from AML12 cells overexpressing GCN5 alone (mouse) (UniProt Q9JHD2). The experiment in a line: pull-down; recombinant human CITED2 with GCN5 immunoprecipitated from AML12 cells overexpressing GCN5 alone; only the binder purified.
Test [9] deals with Myc-GCN5 (mouse) (UniProt Q9JHD2). Kind of test: proximity ligation; in situ PLA (Duolink) in nuclei of primary mouse hepatocytes exposed to pCPT-cAMP for 1 h.
The target is the same in test [10]. The experiment in a line: proximity ligation; in situ PLA (Duolink) in nuclei of primary mouse hepatocytes, exposed or not to pCPT-cAMP for 1 h; signal means proximity <40 nm.

These are yes or no findings as the source states them, for the method shown. Binding seen in cells or lysates may run through a third protein. Some entries that bind do so weakly or less than the wild type. For some of these results: Sequences can lack the tags named with a protein.

B1: HA-CITED2 (protein, UniProt O35740 1-269)
chain: MADHMMAMNHGRFPDGTNGLHHHPAHRMGMGQFPSPHHHQQQQPQHAFNALMGEHIHYGAGNMNATSGIRHAMGPGTVNGGHPPSALAPAARFNNSQFMGPPVASQGGSLPASMQLQKLNNQYFNHHPYPHNHYMPDLHPTAGHQMNGTNQHFRDCNPKHSGGSSTPGGAGGSGTPGGSGGTSGGAGGSSAGGSGGGSTMPASVAHVPAAMLPPNVIDTDFIDEEVLMSLVIEMGLDRIKELPELWLGQNEFDFMTDFVCKQQPSRVSC
In the case of B1, the binding result (in the test with FLAG-GCN5(S275A) (mouse) [1]; in [2]; in the test with FLAG-GCN5(S275A) (mouse) [3]; with FLAG-GCN5(S275D) (mouse); in [4]) was “binds” each time.

B2: CITED2 in AML12 cells (construct not told in the text) (protein, UniProt O35740 1-269)
chain: MADHMMAMNHGRFPDGTNGLHHHPAHRMGMGQFPSPHHHQQQQPQHAFNALMGEHIHYGAGNMNATSGIRHAMGPGTVNGGHPPSALAPAARFNNSQFMGPPVASQGGSLPASMQLQKLNNQYFNHHPYPHNHYMPDLHPTAGHQMNGTNQHFRDCNPKHSGGSSTPGGAGGSGTPGGSGGTSGGAGGSSAGGSGGGSTMPASVAHVPAAMLPPNVIDTDFIDEEVLMSLVIEMGLDRIKELPELWLGQNEFDFMTDFVCKQQPSRVSC
For the molecule B2, the values for the binding result in test [5] and in test [6] were “no binding” and “binds”, respectively.

B3: HA-CITED2 (mouse liver) (protein, UniProt O35740 1-269)
chain: MADHMMAMNHGRFPDGTNGLHHHPAHRMGMGQFPSPHHHQQQQPQHAFNALMGEHIHYGAGNMNATSGIRHAMGPGTVNGGHPPSALAPAARFNNSQFMGPPVASQGGSLPASMQLQKLNNQYFNHHPYPHNHYMPDLHPTAGHQMNGTNQHFRDCNPKHSGGSSTPGGAGGSGTPGGSGGTSGGAGGSSAGGSGGGSTMPASVAHVPAAMLPPNVIDTDFIDEEVLMSLVIEMGLDRIKELPELWLGQNEFDFMTDFVCKQQPSRVSC
For the molecule B3, the binding result in test [7] is recorded as “binds”.

B4: recombinant human CITED2 (protein, UniProt Q99967 1-270)
chain: MADHMMAMNHGRFPDGTNGLHHHPAHRMGMGQFPSPHHHQQQQPQHAFNALMGEHIHYGAGNMNATSGIRHAMGPGTVNGGHPPSALAPAARFNNSQFMGPPVASQGGSLPASMQLQKLNNQYFNHHPYPHNHYMPDLHPAAGHQMNGTNQHFRDCNPKHSGGSSTPGGSGGSSTPGGSGSSSGGGAGSSNSGGGSGSGNMPASVAHVPAAMLPPNVIDTDFIDEEVLMSLVIEMGLDRIKELPELWLGQNEFDFMTDFVCKQQPSRVSC
As for B4, in [8], the binding entry is “binds”.

B5: FLAG-PGC-1α (protein, UniProt O70343 1-797)
chain: MAWDMCSQDSVWSDIECAALVGEDQPLCPDLPELDLSELDVNDLDTDSFLGGLKWCSDQSEIISNQYNNEPANIFEKIDEENEANLLAVLTETLDSLPVDEDGLPSFDALTDGAVTTDNEASPSSMPDGTPPPQEAEEPSLLKKLLLAPANTQLSYNECSGLSTQNHAANHTHRIRTNPAIVKTENSWSNKAKSICQQQKPQRRPCSELLKYLTTNDDPPHTKPTENRNSSRDKCASKKKSHTQPQSQHAQAKPTTLSLPLTPESPNDPKGSPFENKTIERTLSVELSGTAGLTPPTTPPHKANQDNPFKASPKLKPSCKTVVPPPTKRARYSECSGTQGSHSTKKGPEQSELYAQLSKSSGLSRGHEERKTKRPSLRLFGDHDYCQSLNSKTDILINISQELQDSRQLDFKDASCDWQGHICSSTDSGQCYLRETLEASKQVSPCSTRKQLQDQEIRAELNKHFGHPCQAVFDDKSDKTSELRDGDFSNEQFSKLPVFINSGLAMDGLFDDSEDESDKLSYPWDGTQPYSLFDVSPSCSSFNSPCRDSVSPPKSLFSQRPQRMRSRSRSFSRHRSCSRSPYSRSRSRSPGSRSSSRSCYYYESSHYRHRTHRNSPLYVRSRSRSPYSRRPRYDSYEAYEHERLKRDEYRKEHEKRESERAKQRERQKQKAIEERRVIYVGKIRPDTTRTELRDRFEVFGEIEECTVNLRDDGDSYGFITYRYTCDAFAALENGYTLRRSNETDFELYFCGRKQFFKSNYADLDTNSDDFDPASTKSKYDSLDFDSLLKEAQRSLRR
Turning to B5, the figures for the binding result with Myc-GCN5 (mouse) [9] and with Myc-GCN5 (mouse) [10] were “no binding (condition: cells exposed to pCPT-cAMP for 1 h)” and “binds”, respectively.

B6: V5-tagged PGC-1α (protein, UniProt O70343 1-797)
chain: MAWDMCSQDSVWSDIECAALVGEDQPLCPDLPELDLSELDVNDLDTDSFLGGLKWCSDQSEIISNQYNNEPANIFEKIDEENEANLLAVLTETLDSLPVDEDGLPSFDALTDGAVTTDNEASPSSMPDGTPPPQEAEEPSLLKKLLLAPANTQLSYNECSGLSTQNHAANHTHRIRTNPAIVKTENSWSNKAKSICQQQKPQRRPCSELLKYLTTNDDPPHTKPTENRNSSRDKCASKKKSHTQPQSQHAQAKPTTLSLPLTPESPNDPKGSPFENKTIERTLSVELSGTAGLTPPTTPPHKANQDNPFKASPKLKPSCKTVVPPPTKRARYSECSGTQGSHSTKKGPEQSELYAQLSKSSGLSRGHEERKTKRPSLRLFGDHDYCQSLNSKTDILINISQELQDSRQLDFKDASCDWQGHICSSTDSGQCYLRETLEASKQVSPCSTRKQLQDQEIRAELNKHFGHPCQAVFDDKSDKTSELRDGDFSNEQFSKLPVFINSGLAMDGLFDDSEDESDKLSYPWDGTQPYSLFDVSPSCSSFNSPCRDSVSPPKSLFSQRPQRMRSRSRSFSRHRSCSRSPYSRSRSRSPGSRSSSRSCYYYESSHYRHRTHRNSPLYVRSRSRSPYSRRPRYDSYEAYEHERLKRDEYRKEHEKRESERAKQRERQKQKAIEERRVIYVGKIRPDTTRTELRDRFEVFGEIEECTVNLRDDGDSYGFITYRYTCDAFAALENGYTLRRSNETDFELYFCGRKQFFKSNYADLDTNSDDFDPASTKSKYDSLDFDSLLKEAQRSLRR
For B6, the binding entry (with FLAG-GCN5(S275D) (mouse); in [4]) was “binds” each time.

(Values after paper PMC5121418.)
